Test results taken from patent US20210277110A1 (Janssen / Centocor, published 2021).

Biological target: T1, recombinant human TIM-3-Fc fusion protein (huTIM-3-Fc) (human, UniProt Q8TDQ0 22-200)
T1 construct: range 22-200; Bought from R&D Systems (NS0-derived); Deglycosylated for HDX-MS; also called recombinant human Fc-TIM-3 chimera; TIM-3 IgG1 Fc Chimera; not shown: IgG1 Fc of the bought chimera
Experiment: competition ELISA on coated Fc-TIM-3, competitor galectin-9

Galectin 9 Inhibition, % inhibition (maximal): 77%
B1: TM3B109 (antibody, V domains shown)
VH: [left out - about 100 residues]NEEPDDRLDYWGQGTLVTVSS
VL: DIVMTQSPDSLAVSLGERATINCKSSQSVLASSNNKNYLAWYQQKPGQPPKLLIYWASTRESGVPDRFSGSGSGTDFTLTISSLQAEDVAVYYCQQYYSTPLTFGQGTKVEIK
notes: also called TM3H31/PYYL6
